Data from patent US20260042834A1, “ANTI-CORTICOTROPIN-RELEASING HORMONE ANTIBODIES AND POLYCYSTIC OVARY SYNDROME” (HBM ALPHA THERAPEUTICS, INC., priority 2022, published 2026).

T1: biotinylated CRH (Homo sapiens, UniProt P06850)
T1 construct: purchased GL Biochem 784751
T1 sequence (P06850 154-194): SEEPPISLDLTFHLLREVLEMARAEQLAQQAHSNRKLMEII


Key:
[1] = test system: constitutively high plasma ACTH in Mrap1 KO mice; assay: Mrap1 KO mice constitutively high ACTH model; assay type: in vivo, mouse; details: single dose 20 mg/kg
Protocol: 8-10 week old wildtype female C57BL/6 mice were obtained from Charles River Laboratories. Mrap1 KO mice were obtained from Queen Mary University of London, UK. SSR125543A, a small molecule CRHR1 antagonist, was obtained from Axon Medchem (Cat #Axon 1799). Mouse Corticosterone (55-Corms-E01) and adrenocorticotropic hormone (ACTH) ELISA kits (21-ACTHU-E01) were obtained from ALPCO, USA. All procedures were carried out in accordance with the Guide for the Care and Use of Laboratory Animals of the National Institutes of Health. Protocols were approved by Charles River Laboratories Institutional Animal Care and Use Committee (IACUC).
To generate Mrap1 KO mice, Mrap1−/− male mice were bred with Mrap1+/− female mice. Corticosterone hormone replacement was performed by administering 50 μg/ml in drinking water to breeder cages when female mice were pregnant and their pregnancies palpable (approximately embryonic day 10). Drinking water was changed weekly, and treatment was stopped at weaning. Mice were uniquely identified with ear tags at the time of tail clipping to match future genotype with each mouse. DNA was extracted from tail tissue and used to genotype mice.
[…] On day 2 or 3, 14 and 28, 200 μl of blood was collected in EDTA tubes from the submandibular vein of each mouse. […]

biotinylated CRH = molecular target: T1, biotinylated CRH; assay: Affinity determination with Octet; assay type: binding
Protocol: Octet® Red 96e was used for affinity measurement. Octet® running buffer was prepared by diluting kinetics buffer 10× (Fortebio, Cat #18-1105) in PBS according to the manufacturer's instructions. Two columns of SA sensors (Fortebio, Cat #18-5019) were hydrated in running buffer for 10 mins, one for ligand capturing and the other for reference. Antibodies were 2-fold diluted and added into a 96-well plate. 30 nM biotinylated CRH (GL Biochem, Cat #784751) was captured by the first column of SA sensors for 20 seconds, while reference sensors were dipped into buffer wells. After a 60-second baseline step, sensors were dipped into analyte and buffer wells successively, with the association and dissociation time of 180 seconds and 800 seconds, respectively. Sensors were regenerated in glycine pH1.5 (Cytiva, Cat #BR-1003-54) before the next cycle. […] Signals of reference wells and reference sensors were subtracted by selecting “Double reference” before data fitting.

mouse CRHR2 = assay: CRH-induced luciferase reporter blocking assay, CHO-CRE-mCRHR2 cells; assay type: cell-based; details: Table 9; mCrhr2
Protocol: To create CHO-CRE-hCRHR1, -hCRHR2, -mCRHR1, and -mCRHR2 reporter cell lines, pcDNA3.1-hCRHR1, -hCRHR2, -mCRHR1, and -mCRHR2 were introduced into CHO-CRE cells established above by electroporation as described above. Selection antibiotics hygromycin at 500 μg/ml and G418 at 1,000 μg/ml were employed. Individual established stable cell lines were characterized by both CRH and forskolin stimulation. […]
(§1) Cells were digested by trypsin-EDTA (Life technologies, Cat #:12604-013), centrifuged at 1,000 rpm for 5 min, resuspended in growth medium, counted using a cell counter, seeded at a concentration of 5,000 cells per 100 μl in 96-well flat plates, and incubated overnight. 50 μl of 4× serially diluted antibodies was added (8 points, 1/4 diluted by growth medium) to plates containing CHO-CRE-hCRHR1 cells, and 50 μl of 4×CRH (4× is 2 nM, final is 0.5 nM) was added. Similarly, 4×CRH (4× is 0.4 nM, final is 0.1 nM) was added to CHO-CRE-hCRHR2 cells and CHO-CRE-mCRHR1 cells, and 4×CRH (4× is 20 nM, final is 5 nM) was added to CHO-CRE-mCRHR2 cells. Next, plates were incubated 4-6 hours at 37° C. in a CO2 incubator. 60 μl of culture medium was removed, to which was added 60 μl of Bio-Glo luciferase, followed by incubation for 10 min at RT. Plates were read in a luciferase plate reader (EnVision, PerkinElmer).

human CRHR2 = assay: CRH-induced luciferase reporter blocking assay, CHO-CRE-hCRHR2 cells; assay type: cell-based; details: Table 9; hCRHR2
Protocol: To create CHO-CRE-hCRHR1, -hCRHR2, -mCRHR1, and -mCRHR2 reporter cell lines, pcDNA3.1-hCRHR1, -hCRHR2, -mCRHR1, and -mCRHR2 were introduced into CHO-CRE cells established above by electroporation as described above. Selection antibiotics hygromycin at 500 μg/ml and G418 at 1,000 μg/ml were employed. Individual established stable cell lines were characterized by both CRH and forskolin stimulation.
Activated GPCR proteins increase production of the intracellular cAMP. CHO-CRE-human CRHR1 stable clone 11 was generated by introduction of pcDNA3.1-human CRHR1 under the selection of G418 and hygromycin. Human CRHR1 expression in CHO-CRE-hCRHR1 Clone 11 was confirmed by flow cytometry (data not shown). To further validate that the cell line was functional, CHO-CRE-hCRHR1 Clone 11 cells were treated with forskolin and CRH peptide. […] Subsequently CHO-CRE-hCRHR2 Clone 32, -mCRHR1 Clone 22, and -mCRHR2 Clone 8 cell lines were established using similar methodology and validated with CRH treatment (data not shown).
Blocking CRHR1 by small molecules or neutralization of CRH peptide can reduce luciferase expression if the CRH-CRHR1 system works in CHO-CRE-hCRHR1 cells. Antalarmin, a small molecule CRHR1 antagonist, blocked CRH-mediated luciferase expression in CHO-CRE-hCRHR1 Clone 11 (data not shown). Furthermore, sheep anti-CRH polyclonal antibody reduced CRH-mediated luciferase expression in these cells (data not shown). Likewise, sheep anti-CRH polyclonal antibody blocked CRH-mediated luciferase expression in CHO-CRE-hCRHR2, CHO-CRE-mCRHR1, and CHO-CRE-mCRHR2 cells (data not shown).
as §1

Row | kdis (biotinylated CRH) | kon (biotinylated CRH) | IC50 (mouse CRHR2) | IC50 (human CRHR2) | Molecule | plasma ACTH concentrations in Mrap1 KO mice [1]
1 | <1e-07 s⁻¹ | 1.2e+06 M⁻¹ s⁻¹ | 2.08 nM | 1.63 nM | PR302341-55: Series 10 humanized, PTM-removed anti-CRH mAb (Table 9), scaled up for in vivo studies (antibody) heavy: QVQLVQSGAEVKKPGASVKVSCKASGYTFTDYFMKWVRQAPGQRLEWMGVINPNNADIFYNQKFKGRVTITRDTSASTAYMELSSLRSEDTAVYYCARGTDRALFAYWGQGTLVTVSS[human IgG1 constant region not listed] light: DVVMTQSPLSLPVTLGQPASISCRSGQSIVHSDGNTYLEWYQQRPGQSPRLLIYKVSNRFSGVPDRFSGSGSGTDFTLKISRVEAEDLGVYYCFQGSHIPWTFGGGTKVEIKRTVAAPSVFIFPPSDEQLKSGTASVVCLLNNFYPREAKVQWKVDNALQSGNSQESVTEQDSKDSTYSLSSTLTLSKADYEKHKVYACEVTHQGLSSPVTKSFNRGEC | markedly reduced
2 | 3.35e-05 s⁻¹ | 2.49e+06 M⁻¹ s⁻¹ | 3.71 nM | 3.72 nM | PR302341-60: Series 10 humanized, PTM-removed anti-CRH mAb (Table 9), scaled up for in vivo studies (antibody) heavy: QVQLVQSGAEVKKPGASVKVSCKASGYTFTDYFMKWVRQAPGQRLEWMGVINPNQGDIFYNQKFKGRVTITRDTSASTAYMELSSLRSEDTAVYYCARGTDRALFAYWGQGTLVTVSS[human IgG1 constant region not listed] light: DVVMTQSPLSLPVTLGQPASISCRSGQSIVHSDANTYLEWYQQRPGQSPRLLIYKVSNRFSGVPDRFSGSGSGTDFTLKISRVEAEDLGVYYCFQGSHIPWTFGGGTKVEIKRTVAAPSVFIFPPSDEQLKSGTASVVCLLNNFYPREAKVQWKVDNALQSGNSQESVTEQDSKDSTYSLSSTLTLSKADYEKHKVYACEVTHQGLSSPVTKSFNRGEC | markedly reduced
